# Test results from paper PMC4336329 (PLoS ONE, 2015).
# In all, about 310,000 compounds went through this assay and about 14,000 (4.5%) showed an effect of 50% or more. The effect is printed as a negative number. The list shows a part of the results.
# Target: human ether-à-go-go-related gene (hERG) potassium channel (human, UniProt Q12809)
# Assay: primary screen, population patch clamp on CHO cells stably expressing hERG
# Description: Briefly, Chinese hamster ovary (CHO) cells stably expressing the hERG channel were dislodged from tissue culture flasks and dispensed into PPC plates. […] During the recording, background leak currents were estimated by a 100 ms step to -80 mV from an initial holding potential of -70 mV and subtracted from the subsequent current measurement. The campaign was conducted in two phases using slight differences in recording protocol. In the first phase, the initial voltage pulse used a 100 ms step to -30 mV from a holding potential of -70 mV, a 2 s conditioning step to +25 mV, and a 2 s test step to -30 mV. During the second phase of the screen, the potential during the conditioning step was raised to +45 mV. In both phases of the campaign, a secondary voltage pulse was applied using the same parameters as the second phase initial pulse. The initial and secondary pulses were applied in the absence of compound, and upon application of 1 μM and 10 μM test concentrations. […]
# 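Further: peak tail current of the secondary pulse compared with the same well before compound.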
# human ether-à-go-go-related gene (hERG) potassium channel, sequence (Q12809 whole entry, looked up): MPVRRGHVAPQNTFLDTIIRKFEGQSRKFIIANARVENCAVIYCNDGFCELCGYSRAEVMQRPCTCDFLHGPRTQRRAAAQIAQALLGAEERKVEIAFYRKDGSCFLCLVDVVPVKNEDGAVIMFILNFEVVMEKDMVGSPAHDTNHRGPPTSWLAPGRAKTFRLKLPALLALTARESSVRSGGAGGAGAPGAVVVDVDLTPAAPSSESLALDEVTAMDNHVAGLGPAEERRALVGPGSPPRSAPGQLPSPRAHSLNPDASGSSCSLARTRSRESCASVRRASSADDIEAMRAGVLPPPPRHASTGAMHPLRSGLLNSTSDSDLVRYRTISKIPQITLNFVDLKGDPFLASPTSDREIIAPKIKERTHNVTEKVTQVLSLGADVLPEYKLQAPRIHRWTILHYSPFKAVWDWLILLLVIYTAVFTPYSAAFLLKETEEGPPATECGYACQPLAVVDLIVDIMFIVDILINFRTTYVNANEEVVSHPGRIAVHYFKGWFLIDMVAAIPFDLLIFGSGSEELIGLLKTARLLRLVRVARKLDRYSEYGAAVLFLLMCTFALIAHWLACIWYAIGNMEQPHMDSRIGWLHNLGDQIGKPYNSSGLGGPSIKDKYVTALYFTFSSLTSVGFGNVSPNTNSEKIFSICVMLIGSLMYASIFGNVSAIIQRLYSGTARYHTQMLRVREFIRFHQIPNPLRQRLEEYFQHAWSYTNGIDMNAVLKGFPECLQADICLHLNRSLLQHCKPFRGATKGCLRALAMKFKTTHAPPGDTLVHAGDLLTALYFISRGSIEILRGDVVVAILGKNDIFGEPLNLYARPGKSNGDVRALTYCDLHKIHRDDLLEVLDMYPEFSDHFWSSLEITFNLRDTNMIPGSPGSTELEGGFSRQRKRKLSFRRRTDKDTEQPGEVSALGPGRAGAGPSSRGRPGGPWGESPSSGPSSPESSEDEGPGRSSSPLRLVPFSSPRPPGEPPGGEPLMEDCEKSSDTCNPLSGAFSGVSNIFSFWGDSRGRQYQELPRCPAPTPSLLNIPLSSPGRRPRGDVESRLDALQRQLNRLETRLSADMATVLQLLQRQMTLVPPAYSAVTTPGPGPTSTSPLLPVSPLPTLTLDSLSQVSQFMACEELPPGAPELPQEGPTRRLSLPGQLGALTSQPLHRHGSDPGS
row,Compound,"hERG current change (%, negative = inhibition) at 10uM"
1,c1ccc(CN2CCN(Cc3cn4cccnc4n3)CC2)cc1,3.97%
2,CCOC(=O)N1CCN(C(=S)Nc2ccccc2C(C)C)CC1,6.71%
3,CCO[C@H]1OC(C(=O)N2CCCCCCC2)=C[C@@H](c2coc3ccccc3c2=O)[C@@H]1CCCO,-17.7%
4,COc1ccc(NC(=O)c2cc([N+](=O)[O-])ccc2N2CCN(C)CC2)cc1,-43.4%
5,CC(Oc1ccc(Cl)cc1Cl)C(=O)NNC(=O)[C@@H]1CCCC[C@@H]1C(=O)O (stereo partly drawn),0.365%
6,O=C(CSc1nnnn1C1CCCCC1)Nc1ccccc1F,7.22%
7,NS(=O)(=O)c1ccc(NC(=O)CSc2nc3c(c(=O)[nH]2)CCCC3)cc1,3.76%
8,CNc1ccccc1C(=O)OC(C)C(=O)Nc1ccc(Cl)cn1 (stereo not drawn),-1.94%
9,C=CCn1c(NCc2ccc(OC)cc2O)nc2ccccc21,-23.1%
10,Fc1ccc(COc2ccccc2CNc2nn[nH]n2)cc1,15%
11,CCc1ccc(N(CC(=O)NCCc2ccccc2)C(=O)CCC(=O)Nc2ccccn2)cc1,1.94%
12,O=S(=O)(c1ccccc1C(F)(F)F)N1CCC(n2cnc3ccccc32)CC1,-60.5%
13,CCOC(=O)c1ccc(N2CCN(c3ccccc3F)CC2)c(NC(=O)Nc2ccccc2)c1,9.31%
14,CCOc1cc2nc(-c3ccc(OC)c(OC)c3)nc(N3CCOCC3)c2cc1OC,-15.5%
15,COc1ccc(CNC(=O)CSc2nccn(-c3ccc(F)c(F)c3)c2=O)cc1,8.61%
16,O=C(CCn1c2c(c3ccccc31)CCCC2)NNC(=O)c1ccc([N+](=O)[O-])cc1,-11.9%
17,CCOc1ccccc1NC(=O)C1CCN(C(=O)Cc2ccccc2)CC1,-1.35%
18,CCc1cc2c(=O)[nH]c(Cc3ccc(Cl)cc3)nc2s1,3.97%
19,CC1CCc2nn(CC(=O)N3CCCCCC3)cc2C1 (stereo not drawn),-8.53%
20,C/C(CC(=O)NC12CC3CC(CC(C3)C1)C2)=N\NC(=O)c1ccc(F)cc1,-12.9%
21,CC1(C)CC(=O)c2cn3ncnc3nc2C1,-2.31%
22,COc1ccc(C(=O)OCC(=O)NCc2ccco2)cc1S(=O)(=O)N1CCN(c2cccc(Cl)c2)CC1,-7.83%
23,O=C1NC2(CCCC2)C(=O)N1CC(=O)N(Cc1ccccc1)c1ccccc1,-4.37%

row,Compound,"hERG current change (%, negative = inhibition) at 10uM"
1,COc1ccc(-c2[nH]ncc2CN2CCCN(C(=O)c3ccco3)CC2)cc1F,-55.2%
2,Cc1csc(NC(=O)CCNC(=O)c2ccc([N+](=O)[O-])cc2)n1,-25.1%
3,COc1cc(/C=C/C(=O)OCC(=O)NC(=O)NC2CCCCC2)ccc1OC(F)F,5.67%
4,O=[N+]([O-])c1ccccc1Nc1nc(-c2cccnc2)cs1,5.15%
5,O=C(NCCCN1CCCCCC1)c1ccc(N2CCCC2=O)cc1,16.4%
6,CCc1cccc(NC(=O)Cn2cc3c(n2)CCCC3)c1,1.1%
7,O=C(CCCOc1ccc(Cl)cc1Cl)NCCc1nnc2ccccn12,-38.8%
8,COC(=O)[C@@H]1C[C@H]2CC[C@H](O)C[C@H]2N1Cc1ccccc1OC(=O)c1cccs1,-8.84%
9,Cc1[nH]c2ccccc2c1CCCO,10.7%
10,CN(C)S(=O)(=O)c1cccc(NC(=S)NNC(=O)c2cc3ccccc3cc2O)c1,12.4%
11,CCOc1ccccc1N(CC(=O)Nc1ccccc1C(=O)N1CCOCC1)S(C)(=O)=O,9.3%
12,Fc1ccc(NC(=S)N2CCCc3ccccc32)cc1,-0.393%
13,O=C(CSc1nnc(-c2ccncc2)n1Cc1ccccc1)Nc1nccs1,-12.5%
14,O=C1Nc2ccccc2C12Nc1ccccc1-c1nc3ccccc3n12 (stereo not drawn),-0.999%
15,CC(C)CNS(=O)(=O)c1ccc(S(=O)(=O)N2CCCN(Cc3ccccc3)C2)cc1,2.46%
16,Cc1cc(NC(=O)CN2CCCCC2C)nc2c1c(=O)oc1ccccc12 (stereo not drawn),14.5%
17,CN(c1ccc(OCC(=O)NCCc2ccccc2)cc1)S(=O)(=O)c1ccc(Cl)cc1,15.2%
18,CCOc1cccc(/C=N/NC(=S)Nc2ccccc2[N+](=O)[O-])c1O,18.7%
19,Cc1ccc(C)c(C(=O)O/N=C(\N)c2ccc(Br)cc2)c1,-2.61%
20,COc1cccc(NC(=O)c2cnc(SC)nc2C)c1,-11.2%
21,CCN1CCN(C(=S)c2ccc(OCC(=O)N3CCOCC3)cc2)CC1,17.5%
22,Cc1cccc(CC(C)NC(=O)CCc2nnc(CCCCc3ccccc3)o2)n1 (stereo not drawn),-6.97%
